{"source": "PubChem BioAssay (NCI)", "note": "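Briefly, cells in 96-well plates were exposed to five compound concentrations for 48 h, and endpoints were estimated by linear interpolation. GI50 is the concentration that inhibits growth by half. Definition used: TGI = concentration required for complete inhibition of growth.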 Numbered stars: 1 amine (or outer) side, 2 acyl side, 3 side chain; on linkers, the order of the positions; unused ones are H or OH. Square brackets hold non-standard residues; d marks the D form. Peptide text beside a SMILES is read from it. * marks the point of attachment. ξ: configuration not given here. X13 = CCN(CC)c1ccc2cc(N*)c(=O)oc2c1; dIva = CC[C@@](C)(N)C(=O)O; X12 = O=C(OCCN[*:1])[*:2]; Aib = CC(C)(N)C(=O)O; ξP = O=C(O)C1CCCN1; βAla = NCCC(=O)O"}
{"system": "NCI-H322M lung", "test": "NCI anticancer screen, dose series, 48 h", "units": {"TGI": "µM", "GI50": "µM"}}
{"compound": "O=c1c2cn[nH]c2nc2scc(-c3ccc(Cl)cc3)n12", "TGI": "> 100"}
{"compound": "COC(=O)C1=C(C(=O)OC)SC(=C(N=Nc2ccccc2)c2ccccc2)S1", "TGI": "> 100"}
{"compound": "Nc1n[nH]c2cccc(C#Cc3cccc(C(=O)Nc4cc(CN5CCOCC5)cc(C(F)(F)F)c4)c3)c12", "GI50": 5.43, "TGI": 18.7}
{"compound": "COc1cccc(C2SCC(=O)N2c2ccc(-n3c(-c4ccccc4)nc4ccccc4c3=O)cc2)c1OC", "note": "(centres undefined)", "TGI": "> 100"}
{"compound": "CCOC(=O)/C=C(\\C(=O)OCC)n1ccc(=O)n(CC(=O)OCC)c1=O", "TGI": 32.4}
{"compound": "COC(=O)C(F)C(Br)C(=O)OC", "note": "(centres undefined)", "TGI": 30.5}
{"compound": "Cc1ccc(-c2c(C#N)c(N)nc3c2CCS(=O)(=O)c2ccccc2-3)cc1", "TGI": "> 100"}
{"compound": "NC(=S)N/N=C1\\c2ccccc2CCC1CCC1(O)CCc2ccccc2C1=O", "note": "(centres undefined)", "TGI": "> 100"}
{"compound": "COc1cc(C)c(O)c(C(=O)O)c1", "TGI": "> 100"}
{"compound": "Cc1ccc(S(=O)(=O)n2c3c(c4ccccc42)CCN2CCC(Br)C[C@@H]32)cc1", "note": "(some centres undefined)", "TGI": 37.2}
{"compound": "CCOC(=O)C1(C/C=C\\CBr)CCCCCCCCCCC1=O", "note": "(centres undefined)", "TGI": 33.1}
{"compound": "Cc1cn2c(/C=N/Nc3ccccn3)c(-c3ccc(Cl)c([N+](=O)[O-])c3)nc2s1", "GI50": 26, "TGI": "> 50"}
{"compound": "O=C1CC(C(=O)N2CCCCC2)n2c(=O)n(-c3ccccc3)c(=O)n2C1", "note": "(centres undefined)", "TGI": "> 100"}
{"compound": "O=C(/C=C/c1ccccc1)CSc1nc2ccc(I)cc2c(=O)n1Cc1ccccc1", "TGI": "> 89.7"}
{"compound": "Cc1ccc(Nc2nc(NS(=O)(=O)c3cc(C(=O)Nc4ccc(Cl)cc4)c(Cl)cc3S)n[nH]2)cc1", "TGI": "> 100"}
{"compound": "COc1cc(/C=C/C(=O)c2sc(NNC(C)=O)nc2C)ccc1O", "TGI": "> 100"}
{"compound": "CCSc1nc(=[N+]2CCCC2)ss1", "TGI": "> 100"}
{"compound": "CC1CCC(C(C)C)C(O[C@@H]2OC(=O)C[C@@H]2Sc2ccccc2)C1", "note": "(some centres undefined)", "TGI": "> 100"}
{"compound": "CS/C(=N\\c1nccs1)NC(=O)c1cccc(Cl)c1", "TGI": "> 100"}
{"compound": "CCOc1cc2c(cc1OC(C)=O)C(=O)CC[C@H]1C3CC[C@H](OC(C)=O)[C@@]3(C)CC[C@H]21", "note": "(some centres undefined)", "TGI": "> 100"}
{"compound": "COC(=O)C1=C(C)NC(C)=C(C(=O)OC)C1c1cccc(NO)c1", "TGI": "> 100"}
{"compound": "CCN(CC)c1ccc(C(=N)c2ccc(N(C)C)cc2)cc1", "GI50": 3.42, "TGI": 19.5}
{"compound": "O=C1Nc2ccccc2/C1=C/c1c(Cl)[nH]c2ccc(O)cc12", "TGI": 23.3}
{"compound": "c1ccc(C2OCC(OC3CCCCO3)CO2)cc1", "note": "(centres undefined)", "TGI": "> 100"}
{"compound": "N.N.NCCCCCCN.O=C([O-])CC(=O)[O-].O=C([O-])CC(=O)[O-].[Pt+4].[Pt+4]", "GI50": "> 100", "TGI": "> 100"}
{"compound": "CC(C)C12C=CC(C)(CC1)n1c(=O)c3cc4ccccc4cc3c(=O)n12", "note": "(centres undefined)", "TGI": "> 100"}
{"compound": "COCCNc1cc(NC(=O)N2CCCc3cc(CN4CCN(C)CC4=O)c(C=O)nc32)ncc1C#N", "GI50": "> 50", "TGI": "> 50"}
{"compound": "C[n+]1cccc2ccc(OC(=O)c3ccccc3)cc21", "TGI": "> 100"}
{"compound": "Cc1ccc2c(C)c3ccc4ccccc4c3c[n+]2c1", "TGI": 48.6}
{"compound": "CCN(CC)c1ccc2cc(NC(=O)OCCNC(=O)CCNC(=O)[C@H](CC(C)C)NC(=O)C(C)(C)NC(=O)C(C)(C)NC(=O)[C@H](CC(C)C)NC(=O)CCNC(=O)C(C)(C)NC(=O)[C@H](CC(C)C)NC(=O)CCNC(=O)[C@@](C)(CC)NC(=O)[C@H](C)NC(=O)CCNC(=O)C(C)(C)NC(=O)[C@H](C)NC(=O)[C@@H]3CCCN3C(=O)[C@@](C)(CC)NC(=O)[C@H](Cc3ccccc3)NC(=O)C3CCCN3C(=O)C(C)(C)NC(=O)C3CCCN3C(=O)C(C)(C)NC(C)=O)c(=O)oc2c1", "note": "(some centres undefined) (Ac-[Aib][ξP][Aib][ξP]F[dIva]PA[Aib][βAla]A[dIva][βAla]L[Aib][βAla]L[Aib][Aib]L[βAla][X12]-X13)", "GI50": 0.00531, "TGI": 0.051}
{"compound": "C1CCOC2(CCC3(CC2)OCCCCO3)OC1", "TGI": "> 100"}
{"compound": "Cc1ccc2c(c1)-c1c(C#N)c(N)nc(-c3ccccc3)c1CCS2(=O)=O", "TGI": "> 100"}
{"compound": "CS(=O)(=O)Nc1ccc(N=Cc2c(O)[nH]c3ccccc23)cc1", "GI50": "> 20", "TGI": "> 25"}
{"compound": "OCC1OC(n2cnc3c(=S)nc[nH]c32)C(O)C1O", "note": "(centres undefined)", "GI50": 8.64, "TGI": "> 2500"}
{"compound": "CC1(C)OC(=O)C2(O1)C(=O)C1CCCCC12", "note": "(centres undefined)", "TGI": "> 100"}
{"compound": "CC1(C)CC[C@]2(C(=O)N3CCOCC3)CC[C@]3(C)C(=CC[C@@H]4[C@@]5(C)C/C(=C/c6ccncc6)C(=O)C(C)(C)[C@@H]5CC[C@]43C)[C@@H]2C1", "GI50": 4.32, "TGI": "> 100"}
{"compound": "CSc1ccccc1C#Cc1ccccc1C#CCCCCO", "GI50": 12.2, "TGI": 25.1}
{"compound": "CC(CCC(=O)O)C1CCC2C3C(O)CC4CC(O)CCC4(C)C3CC(O)C12C", "note": "(centres undefined)", "TGI": "> 100"}
{"compound": "O=C(CCCN1CCC2(CC1)CC(=O)N(N1CCCCCC1)C2=O)c1ccc(F)cc1", "TGI": "> 100"}
{"compound": "CC(c1ccccc1)/[N+]([O-])=C/c1ccccc1", "note": "(centres undefined)", "TGI": "> 100"}
{"compound": "COC(=O)C1=C(O)c2cc3c(cc2[C@H](c2cc(OC)c(OC)c(OC)c2)C1C(=O)OC)OCO3", "note": "(some centres undefined)", "TGI": "> 100"}
{"compound": "Cc1ccc2c(c1)C(=O)c1c-2n(CCCBr)c(=O)c2cc([N+](=O)[O-])ccc12", "GI50": "> 100", "TGI": "> 100"}
{"compound": "CC(=O)Nc1ccc(/C=C/C(=O)c2sc(-c3nc(C)c(C(=O)/C=C/c4ccc(NC(C)=O)cc4)s3)nc2C)cc1", "TGI": "> 100"}
{"compound": "Cc1[nH]c2ccccc2c1CCNCc1ccc(/C=C/C(=O)NO)cc1", "GI50": 0.0118, "TGI": 0.0949}
{"compound": "COc1ccc(C2(O)c3ccccc3C(=O)N(C)C2(O)c2ccc(OC)cc2)cc1", "note": "(centres undefined)", "TGI": "> 100"}
{"compound": "O=C(NCCc1ccccc1)c1c(O)c2ccccc2[nH]c1=O", "TGI": "> 100"}
{"compound": "C/C(CC1SCCCS1)=C(/C)CC1SCCCS1", "TGI": "> 100"}
